Results taken from article PMC12136788.
Some of the results follow.

B1: chr1:109605286:109605287:-_ENSG00000197780_ENST00000461096|hu_mus|hu_hu_hu_mus_True|18_88 (ssRNA)
RNA: GGGAGUUCUACAGUCCGACGAUCAAGUUUCAGAGUAACAUUCAGUAUACUUAAAUCAUGCAAUUAUCCUUAUUAUAAGCUAAGCAGAAUAAUAAUUUAAUACCGUAAGUGAACUACCACAAAACCUUGAACCGCGAAAAUGGUCAACAGAGGAUUGAGCAUCA
B2: chr1:46159212:46159213:+_ENSG00000159596_ENST00000372025|hu_mus|hu_hu_hu_mus_True|8_18 (ssRNA)
RNA: GGGAGUUCUACAGUCCGACGAUCUCUGAUCCCUCCCAAGAAAGCUAGGAAACCGGCUCCAUAAGCCAUCUGAGUGAAAGCUAGGACGGGGAUAUAAGACUUUGUUAUUACCAUGAGCAGUGGUGGAGCAACGAAGGGGAUUAACAACAGAGGAUUGAGCAUCA
B3: chr6:75950928:75950929:-_ENSG00000112695_ENST00000509698|hu_mus|FALSE|FALSE (ssRNA)
RNA: GGGAGUUCUACAGUCCGACGAUCUGGCAUCCCAUUAUCCUCCUGAAACAGCUUUUGUUUCUCUGGAACCUUGUUUUCAAAAUGCCUUCGUGAAGUGGUGCUGAUGGUCCUCUGGGCAAUCUGACGAAGGGCCAGCAGAUUCCGCAACAGAGGAUUGAGCAUCA
B4: chr3:150459880:150459881:-_ENSG00000181788_ENST00000312960|hu_hu|FALSE|FALSE (ssRNA)
RNA: GGGAGUUCUACAGUCCGACGAUCUUGUGAAGACAUAUGGAAUAAAACAUCUAUAAAAACCUUUAUUAAACAUAGAGCACUAUGCCCAAAUAAUUUUGAAGGUUUACGAAAGUCACAUCAUGGACAACAUGUAGAAAUAGUAACCAACAGAGGAUUGAGCAUCA
B5: chr8:104439394:104439395:+_ENSG00000164934_ENST00000297579|hu_mus|motif|central (ssRNA)
RNA: GGGAGUUCUACAGUCCGACGAUCGCUGUCAAAUCCCCAGUUCAUUGAGCACACAGGGCUGGUUCUUUGUUCAUCCCAAAUGUCGGCUUGCUGUCCACAAGUGGCAAAGACUGGGUCUUUCCAGUGAUGAUCAAUGCCAGUAUACAACAGAGGAUUGAGCAUCA
B6: chr18:25532265:25532266:-_ENSG00000170558_ENST00000399380|hu_hu|FALSE|FALSE (ssRNA)
RNA: GGGAGUUCUACAGUCCGACGAUCGGAAUUAAGGGAGCUCAAGGACCCAGCAGUGGAGCCACUGCCUUCAUAGUCAAACACUAACAGGGAGUCAUAUGGUGGAGCUGUGGGGUCAUUGUCAGCCGCUUUAAGGCCCUCAUUAAUCAACAGAGGAUUGAGCAUCA
B7: chr4:117809766:117809767:-_ENSMUSG00000033326_ENSMUST00000106406|mus_hu|motif|central (ssRNA)
RNA: GGGAGUUCUACAGUCCGACGAUCAGGCAAACAAAUUCUUGAGGAGCAAAAACCUGUUUAACCCCUUCAGUAUUGCCCUCGGGUCCCACCCCCCACCCCAAAAUCAGCUCCCUCCCACCUACAGUGGGCCUCCAAUGGCCCCAGCAACAGAGGAUUGAGCAUCA
B8: chr3:89559821:89559822:-_ENSMUSG00000027950_ENSMUST00000029562|mus_hu|FALSE|FALSE (ssRNA)
RNA: GGGAGUUCUACAGUCCGACGAUCUGAAGACCUCGGCUAGCUCUGUCAUCUUCAUUUUGUAGAUGCAGCACAGCCGGGUCUUAAAAGAGGUCAAACAGCAGACAAGCUCUAGGCCUGUUUACUCGUGUGUUAACCGGGUCAUGGCAACAGAGGAUUGAGCAUCA
B9: chr7:150915252:150915253:-_ENSG00000033050_ENST00000287844|hu_mus|motif|central (ssRNA)
RNA: GGGAGUUCUACAGUCCGACGAUCCUUCCCUGCUCCAUUGGGUCCUACCAGAGCCACUCGUGUGUCAAGAUCAAUACCAAAUUCGGGAUUAUUGUAGAUGCAAGGCCCGUCUUUCGUAUAUUUGAAGCUCACGUUCUGCACCAUCAACAGAGGAUUGAGCAUCA
B10: chr17:62495991:62495992:-_ENSG00000108654_ENST00000581693|hu_hu|FALSE|FALSE (ssRNA)
RNA: GGGAGUUCUACAGUCCGACGAUCCACCAUAAUUACUGCUGCACUGCAGUCAUUUCUGCAAUUCCCAUGUUUCUUAAAUAACUAUCUUGUCAGAUAACACACAAUAUAAAGAGCAAUUAUGAAAAACAGACAUUUACAUAUACUCAACAGAGGAUUGAGCAUCA
B11: chr3:176767854:176767855:-_ENSG00000177565_ENST00000430069|hu_hu|hu_hu_hu_mus_False|28_48 (ssRNA)
RNA: GGGAGUUCUACAGUCCGACGAUCGACAUCCUUGUUACUGGGCACGUCCUGCCCUCCUUCCCGUAUGCAGUGUCUAAGCACGAGCUGUGUAGAGCCACUCGUGCUGUUCUCACUAAGGUUCCAGAUUCUUGCCGUGGAGUCUCCCAACAGAGGAUUGAGCAUCA
B12: chr16:32386223:32386224:+_ENSMUSG00000053774_ENSMUST00000115151|mus_mus|motif|central (ssRNA)
RNA: GGGAGUUCUACAGUCCGACGAUCAAUACAAUUUGAAUGUGACUUUUGUUGGCAGAAAAAAAACCUCACAUCUGAAGAUUACGGGAAAUCUCUCUUAAUAACUGUUGUCGUAUGAACCAAAUUUGAAGGUCUUCCUCUUAGAGACAACAGAGGAUUGAGCAUCA
B13: chr10:128108517:128108518:-_ENSMUSG00000049858_ENSMUST00000054764|mus_mus|motif|central (ssRNA)
RNA: GGGAGUUCUACAGUCCGACGAUCAAACUUAUGCAAAUCAUCCAAGGACAGAGACAGUGACUGACCUCCAGGUGCCCCGGCGGCAUGUAAGCGAUAGGUGUGUGGGUCCAGGUUAGGUACAGGCAGAUGGUUACGGGUGAAGAACAACAGAGGAUUGAGCAUCA
B14: chr7:5108331:5108332:+_ENSG00000146587_ENST00000396912|hu_hu|motif|central (ssRNA)
RNA: GGGAGUUCUACAGUCCGACGAUCUUGCACAUGUGCCUUAAGAUAGUUCUGUUUUGUGCAGUUUUAGGCUAUAAAUAUUCGGGUGCAUGUCCUUUGGUGGACAGACACAUGCAUUUUUGCUGGGUUUGGGUAAAACAGUAUACACAACAGAGGAUUGAGCAUCA

These binders were tested against T1, UNK ZnF1-3 (human, UniProt Q9C0B0 31-174) (assay: nsRBNS (natural sequence RNA bind-n-seq); RBNS binding buffer (assumed for nsRBNS): 25 mM Tris pH 7.5, 150 mM KCl, 3 mM MgCl2, 0.01% Triton X-100, 500 ug/ml BSA, 20 U/ml SUPERase-In, 4 C; UNK is unkempt and MSI1 is Musashi-1; names of the RNAs are library labels; protein concentration not given here; high values mean tight binding).
T1 sequence: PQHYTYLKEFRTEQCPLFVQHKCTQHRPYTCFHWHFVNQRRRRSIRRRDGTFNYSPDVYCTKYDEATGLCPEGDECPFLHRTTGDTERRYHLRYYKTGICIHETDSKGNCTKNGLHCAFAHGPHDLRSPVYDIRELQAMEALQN

Row | Binder | binding signal
1 | B1 | 0.64 enrichment R
2 | B2 | 2.28 enrichment R
3 | B3 | 0.788 enrichment R
4 | B4 | 0.785 enrichment R
5 | B5 | 1.04 enrichment R
6 | B6 | 1.27 enrichment R
7 | B7 | 1.02 enrichment R
8 | B8 | 0.55 enrichment R
9 | B9 | 1.11 enrichment R
10 | B10 | 0.921 enrichment R
11 | B11 | 0.469 enrichment R
12 | B12 | 0.947 enrichment R
13 | B13 | 1.49 enrichment R
14 | B14 | 0.77 enrichment R
